Consider 44 compounds from publication PMC4336329 (PLoS ONE, 2015).

Screen size: about 310,000 compounds; about 14,000 (4.5%) showed an effect of 50% or more. The effect is printed as a negative number. Some of the results follow.
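Note: peak tail current of the secondary pulse compared with the same well before compound.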

The target in the experiment is human ether-à-go-go-related gene (hERG) potassium channel (human, UniProt Q12809). The experiment in a line: primary screen, population patch clamp on CHO cells stably expressing hERG.
Chain of human ether-à-go-go-related gene (hERG) potassium channel (Q12809 whole entry, looked up): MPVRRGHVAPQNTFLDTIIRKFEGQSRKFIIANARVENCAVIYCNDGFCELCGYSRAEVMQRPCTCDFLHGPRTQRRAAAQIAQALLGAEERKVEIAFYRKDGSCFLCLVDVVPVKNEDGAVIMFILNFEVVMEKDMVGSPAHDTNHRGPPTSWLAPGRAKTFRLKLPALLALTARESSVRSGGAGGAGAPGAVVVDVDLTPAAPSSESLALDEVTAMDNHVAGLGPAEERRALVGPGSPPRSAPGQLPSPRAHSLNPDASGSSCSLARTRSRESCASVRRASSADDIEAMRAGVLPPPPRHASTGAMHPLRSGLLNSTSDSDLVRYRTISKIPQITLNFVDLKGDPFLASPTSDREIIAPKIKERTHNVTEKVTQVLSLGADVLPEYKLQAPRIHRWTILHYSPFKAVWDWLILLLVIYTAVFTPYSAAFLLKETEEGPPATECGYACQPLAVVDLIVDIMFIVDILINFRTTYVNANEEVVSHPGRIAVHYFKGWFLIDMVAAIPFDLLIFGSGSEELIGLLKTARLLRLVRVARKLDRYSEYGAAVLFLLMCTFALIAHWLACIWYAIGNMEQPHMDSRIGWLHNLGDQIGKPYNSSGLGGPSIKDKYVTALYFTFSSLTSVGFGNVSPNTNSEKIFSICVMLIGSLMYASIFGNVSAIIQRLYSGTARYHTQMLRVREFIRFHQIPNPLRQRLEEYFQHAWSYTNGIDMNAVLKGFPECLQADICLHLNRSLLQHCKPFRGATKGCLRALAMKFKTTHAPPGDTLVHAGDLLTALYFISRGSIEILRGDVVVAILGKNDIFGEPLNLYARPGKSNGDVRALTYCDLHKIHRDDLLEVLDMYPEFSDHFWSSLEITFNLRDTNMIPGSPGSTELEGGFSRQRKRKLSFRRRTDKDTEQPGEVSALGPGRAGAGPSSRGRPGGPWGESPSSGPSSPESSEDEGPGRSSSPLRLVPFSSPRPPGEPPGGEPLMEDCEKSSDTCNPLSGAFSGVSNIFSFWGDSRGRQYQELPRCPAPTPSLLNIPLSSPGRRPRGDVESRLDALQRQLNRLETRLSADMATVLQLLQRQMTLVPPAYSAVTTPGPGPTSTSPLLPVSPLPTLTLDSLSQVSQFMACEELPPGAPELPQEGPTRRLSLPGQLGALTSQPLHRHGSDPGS
With `COc1ccc(CCNC(=O)COC(=O)Cc2cccc3ccccc23)cc1`, the “hERG current change (%, negative = inhibition) at 10uM” value stood at 3.32%.
Regarding `Cc1csc(SC(C)C(=O)Nc2ccc(S(=O)(=O)N3CCCC3)cc2)n1` (centres unmarked), the “hERG current change (%, negative = inhibition) at 10uM” value is recorded as -6.61%.
On to `Cn1c(=O)c2c(nc(N/N=C/c3c(O)n(C4CCCCC4)c(=S)[nH]c3=O)n2C)n(C)c1=O`, for which the “hERG current change (%, negative = inhibition) at 10uM” value was 12.6%.
Next, `COc1c(C)cc(C(=O)C2CCCN(C(=O)c3ccoc3)C2)cc1C` (centres unmarked): -7.28%; `O=C(NCc1ccco1)c1cc(S(=O)(=O)N2CCCC2)ccc1Cl`: 2.26%; `Cc1cc(C)cc(NC(=O)c2cc(C)n(Cc3cccs3)c2C)c1`: 2.37%.
Take `NS(=O)(=O)c1ccc(NC(=O)CSc2nnc(-c3ccc(O)cc3)o2)cc1`: the “hERG current change (%, negative = inhibition) at 10uM” value is reported as 25.1%.
The figure for `Cc1cccc2c(=O)c(C(=O)NCc3cccs3)c[nH]c12` is 14.7%; for `Cc1nccc2c1[nH]c1ccccc12` it is 2.16%.
Take `CCN(CC)S(=O)(=O)c1cccc(-c2n[nH]c(=S)n2/N=C/c2ccc(OC(F)F)cc2)c1`: the “hERG current change (%, negative = inhibition) at 10uM” value came to 0.89%.
In the case of `O=C(Nc1cccnc1)c1scc2c1OCCO2`, the “hERG current change (%, negative = inhibition) at 10uM” value is 13.2%.
Turning to `CCOC(=O)c1cccc(S(=O)(=O)N(CCO)Cc2cc3cc(OC)ccc3[nH]c2=O)c1`, the “hERG current change (%, negative = inhibition) at 10uM” value is on record as 5.46%.
For `CCNc1nc(-c2ccc(Cl)cc2)cs1`, the “hERG current change (%, negative = inhibition) at 10uM” value came to 1.78%.
Next, `COC(=O)c1ccc(-c2ccc(/C=N/NC(=O)Cc3nnc(N)s3)o2)cc1`: 12.5%.
As to `CCCN1CCN(C(=O)CN2C(=O)CC(C)(C)S(=O)(=O)c3ccccc32)CC1`, the “hERG current change (%, negative = inhibition) at 10uM” value was 2.55%.
With `COc1ccnc(CS(=O)c2nc3cc(OC(F)F)ccc3[n-]2)c1OC.[Na+]` (centres unmarked), the “hERG current change (%, negative = inhibition) at 10uM” value is on record as -45.1%.
As to `C/C(Cc1ccccc1)=N\NC(=O)CNC(=O)COc1ccccc1`, the “hERG current change (%, negative = inhibition) at 10uM” value was 8.45%.
Next, `O=C(NCC1CCCO1)c1cccc(F)c1` (centres unmarked): 10.3%.
For the compound `Cc1nc(N2CCN(S(=O)(=O)c3ccccc3C#N)CC2)c2c(-c3ccccc3)csc2n1`, the “hERG current change (%, negative = inhibition) at 10uM” value was determined as 2.68%.
Next, `Cn1c(SCc2nc3ccccc3[nH]2)nnc1-c1cccs1`: -28.7%; `O=C(C1Cc2ccccc2CN1S(=O)(=O)c1ccc(F)cc1)N1CCCCC1` (centres unmarked): -13.2%; `Clc1cccc(Cl)c1Cn1cnc2c(N3CCCCCC3)ncnc21`: -6.44%.
For `CC1Oc2ccccc2N(CC(=O)c2ccccc2)C1=O` (centres unmarked), the “hERG current change (%, negative = inhibition) at 10uM” value is -5.02%.
For the compound `Cc1ccn2cc(-c3cccc(NC(=O)c4cccs4)c3)nc2c1`, the “hERG current change (%, negative = inhibition) at 10uM” value is -48.7%.
In the case of `CCCCC(=O)Nc1ccc(NC(=O)C2CC2)nc1`, the “hERG current change (%, negative = inhibition) at 10uM” value is reported as 4.98%.
Take `CN(CC(=O)NCc1ccncc1)S(=O)(=O)c1ccc2ccccc2c1`: the “hERG current change (%, negative = inhibition) at 10uM” value was -22.9%.
`Cc1nc(C(F)(F)F)nc(Nc2ccc(Br)cc2)c1C#N`: the “hERG current change (%, negative = inhibition) at 10uM” value is on record as 12.2%.
As for `Cc1c(OCc2ccc([N+](=O)[O-])cc2)ccc2c3c(c(=O)oc12)CCC3`, the “hERG current change (%, negative = inhibition) at 10uM” value came out at 0.652%.
As to `COc1ccc(C/C(C)=N/NC(=O)c2cc(C)oc2C)cc1`, the “hERG current change (%, negative = inhibition) at 10uM” value turned out to be 4.56%.
Take `Cc1ccccc1-n1c(SCc2csc(Nc3ccccc3)n2)nnc1-c1cccnc1`: the “hERG current change (%, negative = inhibition) at 10uM” value is recorded as -6.71%.
Consider `COc1ccc(-n2ncc3c(=O)n(CC(=O)N4c5ccccc5CC4C)cnc32)cc1` (centres unmarked), for which the “hERG current change (%, negative = inhibition) at 10uM” value is given as -1.43%.
Next, `CC1=Nc2ccc(Br)cc2C(c2ccccc2)N1CC(=O)NN` (centres unmarked): -26.3%; `O=C(O)CC(NC(=O)C(c1ccccc1)c1ccccc1)c1ccco1` (centres unmarked): 11.8%.
Take `Cc1cc(NC(=O)CSc2nc(=O)n3cc(Cl)ccc3n2)no1`: the “hERG current change (%, negative = inhibition) at 10uM” value came to 2.75%.
As to `C=CCSc1nnc(NC(=O)CSc2nc3ccccc3[nH]2)s1`, the “hERG current change (%, negative = inhibition) at 10uM” value is 9.74%.
Consider `Cc1ccc(NC(=O)COC(=O)/C=C/c2ccc(Br)o2)cc1S(=O)(=O)N(C)C`, for which the “hERG current change (%, negative = inhibition) at 10uM” value is listed as -0.4%.
Turning to `COc1cccc(CC(=S)N2CCOCC2)c1`, the “hERG current change (%, negative = inhibition) at 10uM” value turned out to be 1%.
As to `C/C(=N\O)C1CC(CC(=O)O)C1(C)C` (centres unmarked), the “hERG current change (%, negative = inhibition) at 10uM” value is given as 12.9%.
`CCCS(=O)(=O)C/C(N)=N/OC(=O)c1ccccc1Cl`: the “hERG current change (%, negative = inhibition) at 10uM” value was found to be 5.28%.
In the case of `CCOC(=O)Cn1nnnc1CN(Cc1ccccc1)Cc1cc2cc(CC)ccc2[nH]c1=O`, the “hERG current change (%, negative = inhibition) at 10uM” value is given as -11.2%.
The figure for `CC[C@@H]1[C@H]2CCCC(=O)N3CC[C@@H](C[C@@H]1Nc1ccccc1)[C@@H]23` is -3.88%; for `O=C(Nc1ccccc1N1CCN(c2ccccc2)CC1)c1ccccc1` it is 8.61%.
Regarding `COc1ccc(F)cc1-c1nc(N)nc(N)n1`, the “hERG current change (%, negative = inhibition) at 10uM” value is on record as 23.5%.
For `Br.N=c1n(CCN2CCCCC2)c2ccccc2n1CC(=O)c1cccs1`, the “hERG current change (%, negative = inhibition) at 10uM” value is reported as -25.2%.
